# Assay results taken from paper PMC4336329 (PLoS ONE, 2015).
# The whole screen tested about 310,000 compounds, of which about 2,200 (0.71%) showed an effect of 50% or more. The effect is printed as a negative number. The list shows a part of the results.
# Target: human ether-à-go-go-related gene (hERG) potassium channel (human, UniProt Q12809)
# Assay: primary screen, population patch clamp on CHO cells stably expressing hERG
# human ether-à-go-go-related gene (hERG) potassium channel, sequence (Q12809 whole entry, looked up): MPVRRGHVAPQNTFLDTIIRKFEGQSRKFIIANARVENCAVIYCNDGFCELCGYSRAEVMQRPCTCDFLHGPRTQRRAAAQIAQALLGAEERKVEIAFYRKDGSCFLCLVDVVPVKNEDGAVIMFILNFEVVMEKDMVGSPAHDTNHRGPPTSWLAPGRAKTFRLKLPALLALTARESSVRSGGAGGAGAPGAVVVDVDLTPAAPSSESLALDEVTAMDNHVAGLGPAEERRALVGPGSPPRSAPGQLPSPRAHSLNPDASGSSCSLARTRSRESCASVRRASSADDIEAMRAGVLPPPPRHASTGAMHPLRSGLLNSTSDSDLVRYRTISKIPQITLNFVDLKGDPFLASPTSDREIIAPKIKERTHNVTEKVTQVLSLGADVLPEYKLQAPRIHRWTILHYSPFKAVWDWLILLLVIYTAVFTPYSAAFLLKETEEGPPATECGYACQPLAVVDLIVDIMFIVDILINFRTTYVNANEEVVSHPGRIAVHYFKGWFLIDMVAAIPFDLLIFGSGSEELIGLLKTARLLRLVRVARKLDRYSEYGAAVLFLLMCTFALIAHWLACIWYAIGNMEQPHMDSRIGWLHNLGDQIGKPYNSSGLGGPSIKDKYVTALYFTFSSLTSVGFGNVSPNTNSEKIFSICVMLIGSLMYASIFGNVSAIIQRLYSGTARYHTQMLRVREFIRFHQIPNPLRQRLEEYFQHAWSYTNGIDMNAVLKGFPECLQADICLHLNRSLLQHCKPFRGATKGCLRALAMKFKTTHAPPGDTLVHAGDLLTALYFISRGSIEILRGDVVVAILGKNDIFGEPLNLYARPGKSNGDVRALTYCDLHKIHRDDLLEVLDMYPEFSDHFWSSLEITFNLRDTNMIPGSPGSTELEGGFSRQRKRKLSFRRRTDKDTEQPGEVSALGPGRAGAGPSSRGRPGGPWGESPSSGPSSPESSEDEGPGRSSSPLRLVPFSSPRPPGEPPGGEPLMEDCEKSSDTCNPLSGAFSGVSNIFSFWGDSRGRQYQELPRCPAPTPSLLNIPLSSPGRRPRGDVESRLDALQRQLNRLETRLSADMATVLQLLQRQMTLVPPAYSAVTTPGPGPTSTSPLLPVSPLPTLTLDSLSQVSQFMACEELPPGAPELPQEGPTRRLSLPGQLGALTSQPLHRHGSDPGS
row,SMILES,"hERG current change (%, negative = inhibition) at 1uM"
1,Cc1cc2sc(NC(=O)c3ccco3)nc2cc1Cl,15%
2,C=CCOc1ccc(C2C(C(=O)c3ccc(C)o3)=C(O)C(=O)N2Cc2cccnc2)cc1 (stereo not shown),13.3%
3,COc1ccc(CCNC(=O)CCc2cc(OC)c(OC)c(OC)c2)cc1OC,9.89%
4,COc1ccc(NC(=O)c2cc(N3C(=O)C4C5CCC(C5)C4C3=O)ccc2Cl)c(OC)c1 (stereo not shown),9.88%
5,O=C(COC(=O)c1cccc([N+](=O)[O-])c1)c1ccc(OCc2ccccc2)cc1,13.4%
6,Cc1ccc(Cl)cc1NC(=S)N(Cc1cccnc1)Cc1ccccc1Cl,8.98%
7,Cc1ccc(S(=O)(=O)N(CC(=O)N(C(C)C)C(C)C)C(=O)N2CCN(C)CC2)cc1,15.1%
8,O=C1C(NS(=O)(=O)c2cccs2)=C(N2CCOCC2)C(=O)c2ccccc21,7.19%
9,CCN(CC)CCCN1C=C2C(=O)C(C)(OC(=O)CCC(=O)OC)C(=O)C(Br)=C2C=C1c1ccc(OC)cc1 (stereo not shown),10.3%
10,CC(C)n1c(SCC(=O)Nc2nncs2)nnc1C1CC1,10.2%
11,CCCCNc1c(N)n(CCCC)c(=O)[nH]c1=O,0.0826%
12,Cc1cc(C)c2c(=O)[nH]c(SCC(=O)c3ccc(C)c(C)c3)nc2n1,-4.96%
13,COc1ccc(/C=C/C(=O)Nc2cccc(S(=O)(=O)NC3=NCCCCC3)c2)cc1,-3.48%
14,Cc1cccc(NC(=O)c2ccc3c(c2)C(=O)N(c2ccccn2)C3=O)c1C,10.6%
15,C[C@@H]1CC=C[C@H]2[C@H]1C(=O)N(Cc1ccccc1)[C@H]2c1ccc(-c2ccc(N(C)C)cc2)cc1F,8.33%
16,S=C(NCC1CCCO1)Nc1ccccc1Cl (stereo not shown),9.9%
17,COc1ccc(C(=O)Cn2ccsc2=NC(C)=O)cc1,7.84%
18,N#C/C(=C\c1ccccc1)C(=O)NC(=O)Oc1ccccc1,13.6%
19,COc1ccc(-c2nn3c(-c4ccccc4)nnc3s2)cc1OC,2.33%
20,CS(=O)(=O)N1CCN(C(=O)COc2ccccc2)CC1,13.7%
21,COc1ccc(CC(CC(=O)O)C(=O)Nc2ccc(Cl)c(Cl)c2)cc1 (stereo not shown),13.5%
22,O=C(CSc1n[nH]c(=O)n1C1CC1)Nc1cc(Cl)ccc1Oc1ccccc1,-0.215%

row,SMILES,"hERG current change (%, negative = inhibition) at 1uM"
1,CCC(CC)C(=O)NCc1ccc(OC)cc1,-2.13%
2,CN(C)CCCN(C(=O)c1ccc(S(=O)(=O)N2CCc3ccccc3C2)cc1)c1nc2c(F)cc(F)cc2s1.Cl,-0.987%
3,O=C(C1CCC(=O)N(C2CC2)C1)N1CCN(c2ccc(Cl)cc2)CC1 (stereo not shown),-9.81%
4,COCCCNC(=S)Nc1ccc2c(c1)OCCO2,1.06%
5,COC(=O)c1ccccc1NC(=O)CN1CCC(NC(=O)c2ccccc2C)CC1,-4.92%
6,COc1ccccc1C(=O)Nc1sc(C(=O)N2CCCC2)c(C)c1C#N,13.8%
7,COc1ccc([C@@H]2CC=C(C(=O)O)[C@H](c3ccc(Cl)cc3)N2S(=O)(=O)c2ccc(C)cc2)cc1OC,7.01%
8,Cc1ccccc1OCCOc1ccc([N+](=O)[O-])cc1/C=N/n1cnnc1,13.6%
9,COc1ccc(C)cc1S(=O)(=O)N(C)CC(=O)N1CCN(C)CC1,12%
10,CN(Cc1cnn(C)c1)Cc1nc(-c2ccc(Cl)cc2)no1,8.9%
11,Cn1c(=O)[nH]c(=O)c2c1nc(Sc1ccccc1)n2CCc1ccccc1,17%
12,CCOC(=O)N1CCN(c2nc(C)c3c(n2)CC(C)CC3=O)CC1 (stereo not shown),18.1%
13,COc1cc(-n2c(=O)c3ccccc3n(CC(=O)c3ccccc3)c2=O)cc(OC)c1OC,14.7%
14,NCCNc1ccc([N+](=O)[O-])c(NC2CC2)c1,1.59%
15,O=C(c1ccc(Cn2c(=S)[nH]c3ccc(Br)cc3c2=O)cc1)N1CCN(C2CCCCC2)CC1,12.7%
16,COc1ccc(C(C(=O)NC2CCCCC2)N(C(=O)c2csnn2)C2CC2)cc1 (stereo not shown),-3.64%
17,Cc1cc(NC(=O)c2cc(C3CC3)on2)no1,19%
18,C=CC1CN2CCC1CC2C(OC(C)=O)c1ccnc2ccc(OC)cc12 (stereo not shown),1.56%
19,CC(=O)Nc1ccc(/C=N/NC(=O)CCN2CCN(c3ccccc3)CC2)cc1,5.44%
20,CC(C)(C)C(=O)CN1C(=O)NC(c2ccccc2)(c2ccccc2)C1=O,8.75%
21,CCOC(=O)C1=C(C)NC(=O)NC1c1ccc(Br)o1 (stereo not shown),11.2%
